Some of the results follow.

T1: UNK ZnF1-3 (human, UniProt Q9C0B0 31-174)
T1 sequence: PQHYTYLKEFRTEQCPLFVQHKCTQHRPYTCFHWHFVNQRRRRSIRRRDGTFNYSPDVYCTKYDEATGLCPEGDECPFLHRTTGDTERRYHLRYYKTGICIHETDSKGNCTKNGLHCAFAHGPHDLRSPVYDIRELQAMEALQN

B1: chr4:24557968:24557969:-_ENSG00000109606_ENST00000336812|hu_hu|FALSE|FALSE (ssRNA)
RNA: GGGAGUUCUACAGUCCGACGAUCACCCAUUAGAAUAUCUGUAGCCAGUGUCCUCUCAUGAGCCUCAUCAAGAAUUAUUACACCAUAACGCUCCAGGAGGGGAUCAUUCAUAGCUUCACGAAGUAACAUCCCAUCAGUCAUAUACAACAGAGGAUUGAGCAUCA
B2: 49403031_49403976_2306_CDS_ENSMUSG00000069495_ENSMUST00000092123|mouse|control|control (ssRNA)
RNA: GGGAGUUCUACAGUCCGACGAUCGGUGGAAUAUAAUGUUUUAGAGGGUCCUGAAGGCUGGACAACACCAUUCAUAUUGUUGUGGCCAGUGUUCUGUUCCUUGGAUCCCUCACUGCGACUUGGAACAGGAGCACUGACCACUGCCAACAGAGGAUUGAGCAUCA
B3: chr4:95690885:95690886:+_ENSMUSG00000028572_ENSMUST00000156910|mus_mus|mus_mus_mus_hu_False|38_68 (ssRNA)
RNA: GGGAGUUCUACAGUCCGACGAUCUUUAGAAAAUGUUAAAUACCAUGCUAAAAUAUUUUCAAAGGCUAGUCUUAUUUUACCAGAAGUCACAGGCAAGCAGACACCAUAAGAAUAUAUGAAAAUGAAACUCAACAAUAUAACUGUCAACAGAGGAUUGAGCAUCA
B4: 8170459_8170715_3274_CDS_ENSG00000178921_ENST00000314666|human|control|control (ssRNA)
RNA: GGGAGUUCUACAGUCCGACGAUCGAUGGCGACUCGGGGGCUGGGACCACCAGGCUCACGGGGCACGGAGGCUUUGGGAAAGGUGGGGGGCAGGCAAUAGCUGGGCCCCAUCCGCUCCCUCAGGCCCCGUUCCUCCUCUGCCACCAACAGAGGAUUGAGCAUCA
B5: chr5:24101842:24101843:-_ENSMUSG00000028949_ENSMUST00000030791|mus_mus|motif|central (ssRNA)
RNA: GGGAGUUCUACAGUCCGACGAUCCUCCUGGAUGUCCACCCGCUUCCGCAUGAUGGUUUGAUCCAGUUUCCUCUCAAAUGCGGGGAGGUCCAUGUAAGCCUGGGACUCGGGUACCAGCUCCCGAAUCCUUUGAGGGAGGAUUUUCAACAGAGGAUUGAGCAUCA
B6: chr11:77376804:77376805:-_ENSG00000048649_ENST00000308488|hu_mus|FALSE|FALSE (ssRNA)
RNA: GGGAGUUCUACAGUCCGACGAUCUGGAUUUUAAUAGAAGUAUAUAAUGGCCAAAGGCCAAAACUACAUUCAAACCCUGCUAAUAUAUCCAGGCCGAUAGAAAAUUCACACACACACACACACACACACACACACACACACACACAACAGAGGAUUGAGCAUCA

The target of the experiment is T1, UNK ZnF1-3. In words: nsRBNS (natural sequence RNA bind-n-seq); RBNS binding buffer (assumed for nsRBNS): 25 mM Tris pH 7.5, 150 mM KCl, 3 mM MgCl2, 0.01% Triton X-100, 500 ug/ml BSA, 20 U/ml SUPERase-In, 4 C; UNK is unkempt and MSI1 is Musashi-1; names of the RNAs are library labels; protein concentration not given here; high values mean tight binding.
For the molecule B1, the binding signal worked out at 1.07 enrichment R.
Then B2, with 0.658 enrichment R; and B3, with 1.45 enrichment R.
As for B4, the binding signal was 0.502 enrichment R.
B5 had a binding signal of 0.582 enrichment R.
The molecule B6 showed a binding signal of 2.31 enrichment R.

The record behind these values is publication PMC12136788.
